Test results taken from US20220031697A1, “Dose and regimen for an hdm2-p53 interaction inhibitor in hematological tumors” (Novartis AG, priority 2017, published 2022).

System: patients with hematological tumors
Test: Phase I study CHDM201X2101: safety and tolerability (adverse events, DLTs)
Conditions: Regimen 2C, 1 DLT out of 8 evaluable patients in cycle 1

Question: Which “Dose to which BLRM allowed to escalate” value does the source give for `COc1ncc(-c2nc3c(n2C(C)C)[C@H](c2ccc(Cl)cc2)N(c2cc(Cl)cn(C)c2=O)C3=O)c(OC)n1` [HDM201, (S)-5-(5-Chloro-1-methyl-2-oxo-1,2-dihydro-pyridin-3-yl)-6-(4-chloro-phenyl)-2-(2,4-dimethoxy-pyrimidin-5-yl)-1-isopropyl-5,6-dihydro-1H-pyrrolo[3,4-d]imidazol-4-one] here?
Answer: up to 90 mg
